Results taken from patent publication US20100210602A1, “PhoU (PerF), A P[…] INVOLVED IN [sequence] FORMATION AND TOLERANCE TO MULTIPLE ANTIBIOTICS AND [sequence] AS A DRUG TARGET FOR [sequence] BACTERIA” (priority 2006, published 2010).

Test system: PhoU mutant JHU-313
Test: Energy inhibitor exposure in MOPS minimal medium pH 5.0 (CFU)
Details: 1 day of exposure; DCCD 5 mM, CCCP 1 mM; MOPS pH 5.0

## N#CC(C#N)=NNc1cccc(Cl)c1 [CCCP, carbonyl cyanide m-chlorophenylhydrazone]
  drop in CFU counts in the PhoU mutant over that of the wild type strain W3110: about 1000 fold

## C(=NC1CCCCC1)=NC1CCCCC1 [DCCD]
  drop in CFU counts in the PhoU mutant over that of the wild type strain W3110: about 1000 fold
